We go through 91 compounds from PubChem BioAssay AID463173 (ICCB-Longwood Screening Facility, Harvard Medical School, 2010).

SMILES strings stand for the structures. About 4,300 (8.3%) of roughly 52,000 compounds were called active. Rule as the data show it: active = survival mostly below about 52% (no sharp cut-off); inactive = mostly above about 56%. The list shows a part of the results.

For this assay, the system named is DeltatarO mutant. The assay is described as follows: growth inhibition of S. aureus wild type versus tarO mutant, primary screen, teichoic acid synthesis inhibitors, RN4220, OD600 (AID 463173). As to conditions: OD600, 18 h, stronger effect = lower value, screened at 18.75 µg/mL (by protocol).
For the compound `Cc1cc(C)c(S(=O)(=O)Nc2ccc3oc4c(c3c2)C(=O)CC(C)(C)C4)cc1C`, the survival was inactive: 60%.
The value for `COc1ccc(-c2cnc(C)o2)cc1S(=O)(=O)Nc1ccc(F)cc1F` was inactive: 112%; that for `CN(C)CCCNC(=O)C(=O)NCC(c1ccc2c(c1)OCO2)N1CCOCC1` (stereo unspecified) was inactive: 106%; that for `Cc1nc2nc(SCC(=O)Nc3ccccc3Cl)nn2c(C)c1Cc1ccccc1` was active: 20%.
The value for `COc1cc2c(cc1OC)C(COc1ccc(F)cc1)N(C(=O)c1cccc(F)c1)CC2` (stereo unspecified) was inactive: 67%; that for `CN1CCN(C(=O)Cn2ncc3c4ccccc4n(Cc4ccc(F)cc4)c3c2=O)CC1` was inactive: 78%; that for `O=C(c1ccc(Br)cc1)N(Cc1cccs1)c1ccc(F)cc1` was inactive: 61%.
Then `Cn1c(=O)c2cc(C(=O)NC3CCCCCC3)sc2c2ccccc21`, with inactive: 69%; and `CCOc1ccc(CN2CCc3nc(N4CCN(c5ccccn5)CC4)ncc3C2)cc1OC`, with inactive: 120%.
For `O=C(Cn1ncc2c3ccccc3n(Cc3ccccc3)c2c1=O)NC1CCCCCC1`, the survival is inactive: 123%.
Then `COc1ccc(NC(=O)C(CC(C)C)NC(=O)C2CCCCC2)cc1` (stereo unspecified), with inactive: 69%; and `COc1ccc(-c2coc3c2c(C)cc2oc(=O)c(CC(=O)O)c(C)c23)cc1`, with active: 42%; and `COc1ccccc1CN1CCNC(=O)C1=O`, with inactive: 78%.
The value for `CCOc1ccc(/C=C(\C(=O)N2CCCC2)n2ccccc2=O)cc1` was inactive: 74%.
The value for `COc1ccc(N(Cc2nnc3n2CCCCC3)C(=O)Nc2cccc(C)c2)cc1Cl` was inactive: 81%; that for `Cc1ccc(NC(=O)CN2C(=O)COc3ccc(S(=O)(=O)NC4CCCC4)cc32)c(Cl)c1` was inactive: 75%.
As to `CN(Cc1ccccc1)C1CCNCC1`, the survival was inactive: 90%.
For `Cc1ccc(NC(=O)Cn2c(=O)n(Cc3ccc4c(c3)OCO4)c(=O)c3ccccc32)cc1`, the survival was inactive: 86%.
The value for `COc1ccc(-c2cn3c(n2)sc2cc(C(=O)NCc4cccc(F)c4)ccc23)cc1` was inactive: 80%; that for `Cc1ccc(C(=O)c2cn(Cc3ccccc3C)c3nc(C)ccc3c2=O)cc1` was inactive: 80%; that for `Cc1ccccc1-c1cc2nccc(-c3cc(Cl)ccc3O)n2n1` was inactive: 69%.
Then `CCCc1cnc2c(c1SCc1cccc(F)c1)c(=O)n(C)c(=O)n2C`, with inactive: 76%; and `Cc1oc2c(cc(NS(=O)(=O)c3ccc(Cl)cc3)c3ccccc32)c1C(=O)OCc1ccccc1`, with inactive: 52%; and `CCCc1noc(-c2ccc(NCc3ccc(C)cc3)c([N+](=O)[O-])c2)n1`, with inactive: 82%.
Then `NC(=O)Nc1nc2cc(Cl)cc(Cl)c2[nH]c1=O`, with inactive: 96%; and `COc1ccc(CNC(=O)Cc2csc3nc(-c4ccc(F)cc4)cn23)cc1`, with inactive: 81%.
Regarding `COc1ccc(N(Cc2cccs2)C(=O)Nc2cccc(Cl)c2)cc1`, the survival was inactive: 69%.
Then `CCOC(=O)C1CCCN(S(=O)(=O)c2ccc3c(c2)oc(=O)n3C)C1` (stereo unspecified), with inactive: 96%; and `COc1ccc(C2CC(=O)N(CC(=O)Nc3ccc(C)c(Cl)c3)c3ccccc3S2)cc1OC` (stereo unspecified), with inactive: 88%.
The value for `CCOc1ccc(NC(=O)C(=O)NCC(c2cccnc2)N2CCc3ccccc32)cc1` (stereo unspecified) was inactive: 44%; that for `COc1ccc(-c2nc(SCC(=O)NC3CCCC3)c(-c3ccc(C)cc3)[nH]2)cc1OC` was inactive: 57%; that for `Cc1c(C(=O)N2CCOCC2)sc(NC(=O)c2ccc3c(c2)OCO3)c1C#N` was inactive: 90%.
For `Cc1ccccc1NC(=O)CCN1C(=O)c2ccccc2Sc2ncccc21`, the survival is inactive: 74%.
Then `COc1cccc(NC(=O)CCc2c(C)nc3ncnn3c2C)c1`, with inactive: 95%.
As to `CCc1ccc(Nc2nnc(-n3nc(C)cc3C)c3ccccc23)cc1`, the survival was inactive: 121%.
Then `COc1ccc(CNC(=O)c2cnc3sc(N4CCCC4)nn3c2=O)c(OC)c1`, with inactive: 70%; and `CSc1ccccc1NC(=O)CCS(=O)(=O)c1nc(-c2cccs2)cc(C(F)(F)F)n1`, with inactive: 79%.
The value for `Cc1ccc(NC(=O)CSc2nnc(-c3cc4occc4n3C)n2-c2ccccc2C)cc1F` was inactive: 86%; that for `COc1ccc(C(=O)N=c2sc3cc(Cl)ccc3n2C)cc1` was inactive: 71%; that for `COC(=O)c1csc(N)n1` was inactive: 95%.
Then `CCN(CC)CCOC(=O)c1ccc(NC(=O)CCn2c(=O)oc3ccccc32)cc1`, with active: 45%; and `Cc1ccc(-n2c(=O)c3sccc3n(Cc3cc(=O)n4ccccc4n3)c2=O)cc1`, with active: 63%.
`COc1ccc(C(=O)N2CCC(C(=O)Nc3ccc(OC)cc3OC)CC2)cc1`: the survival was inactive: 58%.
The value for `CCN(C(=O)Cn1nc(Cc2cccnc2)c2ccccc2c1=O)c1cc(C)ccc1C` was inactive: 80%; that for `COc1cc(N(C(=O)Cn2nnc3ccccc32)C(C(=O)NCC2CCCO2)c2cccn2C)ccc1-n1cnnn1` (stereo unspecified) was inactive: 111%.
Turning to `Cc1nnsc1C(=O)Oc1ccccc1Cl`, the survival was inactive: 83%.
Then `CCC(=O)N1CCc2cc(S(=O)(=O)NCCC(=O)Nc3cccc(C)c3C)ccc21`, with inactive: 123%; and `Cc1cc(SCC(=O)NCc2ccccc2)nc(=O)[nH]1`, with inactive: 94%; and `COc1cccc(CNc2ccc3c(c2)ncn3C)c1OC`, with inactive: 122%.
With `COc1ccc(OC)c(CCNC(=O)C(C)n2nc(C)c3c(C)n(-c4ccc(C)cc4)nc3c2=O)c1` (stereo unspecified), the survival is inactive: 76%.
With `CCOc1ccccc1NC(=O)C1CCCN(S(=O)(=O)c2ccc3c(c2)CCCN3C(C)=O)C1` (stereo unspecified), the survival was inactive: 55%.
The value for `O=C(NCc1ccccc1Br)c1ccc(-n2cnc3cccnc32)cc1` was inactive: 129%; that for `COc1ccc(N(CC(=O)Nc2ccc(Cl)cc2C)S(=O)(=O)c2ccccc2)c(OC)c1` was inactive: 113%.
Then `COc1cc(-c2nnc(SCC(=O)N3CCCc4ccccc43)o2)cc(OC)c1OC`, with inactive: 66%.
Then `CCc1ccc(S(=O)(=O)c2nnn3c2nc(Nc2cccc(C)c2C)c2sccc23)cc1`, with inactive: 79%; and `CN(C)C(=O)Cn1c2[n+](c3ccccc31)CC(O)CS2` (stereo unspecified), with inactive: 66%.
With `N#Cc1ccccc1NC(=O)C(=O)NCC(c1cccnc1)N1CCc2ccccc2C1` (stereo unspecified), the survival is inactive: 66%.
The value for `O=C(Nc1cccc(F)c1)N1C2CCC1CC(O)(c1cccnc1)C2` (stereo unspecified) was inactive: 83%.
On to `COC(=O)C1C(=O)C2=C(CC1C)Nc1ccccc1NC2c1ccc(C)cc1` (stereo unspecified), for which the survival is inactive: 79%.
On to `CCC1=NN(C(=O)C(C)C)C(O)(C(F)(F)F)C1` (stereo unspecified), for which the survival is inactive: 91%.
Regarding `O=C(Cn1nc2c(cc1=O)CCCC2)NCc1ccccc1Cl`, the survival was inactive: 144%.
Then `Cc1ccc(C(=O)Nc2nnc(SCc3cc(=O)n4ccc(C)cc4n3)s2)cc1`, with inactive: 109%.
Then `Cc1cc(C)cc(NC(=O)Cn2nnc(C(=O)NCc3ccco3)c2N)c1`, with inactive: 88%.
For the compound `O=C(CN1C(=O)COc2ccc(S(=O)(=O)N3CCCCCC3)cc21)N1CCN(c2ccccc2)CC1`, the survival was inactive: 79%.
The value for `CCC(=O)N1c2nc(C(C)C)nn2C2(CCCCC2)[C@@H]2CCCC[C@@H]21` was inactive: 81%; that for `CCCNS(=O)(=O)c1ccc(OCC(=O)NCc2ccccn2)cc1` was inactive: 96%; that for `CCCN(C(=O)CCn1cnc2onc(-c3ccc(F)cc3)c2c1=O)c1ccccc1C` was inactive: 82%.
For the compound `Cc1ccc(Cl)cc1N1CCN(C(=O)Cn2nc(C)n3c(cc4sccc43)c2=O)CC1`, the survival is inactive: 102%.
On to `CCOC(=O)c1c(-c2ccccc2)csc1NC(=O)c1cc(-c2cccc(OC)c2)on1`, for which the survival was active: 43%.
The value for `Cc1cc(C)cc(C(=O)Nc2c3c(nn2-c2ccccc2C)CS(=O)(=O)C3)c1` was inactive: 79%; that for `Cc1cccc(C)c1NC(=O)CSc1nnc(C)n1Cc1ccccc1` was inactive: 93%; that for `Cc1cn2c(=O)cc(COc3cccc(NC(=O)c4cccc(F)c4)c3)nc2s1` was inactive: 79%.
Consider `COc1ccc(C(=O)Nc2ccc3nc(N4CCCCC4)cc(C)c3c2)c(OC)c1`, for which the survival is active: 44%.
Then `COc1ccc(N2CCN(S(=O)(=O)CCNC(=O)Cc3ccc(-c4ccccc4)cc3)CC2)cc1`, with inactive: 115%.
Turning to `CCOC(=O)c1c(NC(C)=O)c2c3c(sc2n1Cc1cccc(Cl)c1)CCCC3`, the survival is inactive: 104%.
The value for `Cc1ccc(C(CC(=O)Nc2ccc(C)cc2C)N2Cc3ccccc3C2=O)cc1` (stereo unspecified) was inactive: 94%; that for `CCOC(=O)c1cccc(NC(=O)C2CCN(c3nnc(C)c4c(C)n(-c5ccccc5)nc34)CC2)c1` was inactive: 84%.
Then `COc1ccc(Cl)cc1NC(=O)C(C)N1Cc2ccccc2C1=O` (stereo unspecified), with inactive: 89%; and `COc1ccc(NCc2cccn2-c2nnc(N3CCOCC3)s2)c(OC)c1`, with inactive: 78%; and `CCOc1cc(CNC(=O)C(NS(=O)(=O)c2cccs2)C(C)C)cc(OCC)c1OCC` (stereo unspecified), with inactive: 66%.
As for `O=C(Cn1c(SCc2cccc(F)c2)nc2ccncc21)Nc1ccc(Cl)cc1F`, the survival was inactive: 52%.
Then `CCOc1cc(CNC(=O)c2ccc(NC(=O)c3nsc4ccccc34)cc2)ccc1OC`, with inactive: 82%; and `CCN(CC)c1ccc(NC(=O)c2cc(CN3CCCC3)on2)c(C)c1`, with inactive: 102%.
The value for `CCOc1ccc(NC(=O)CC2C(=O)N(c3cccc(OC)c3)C(=O)N2C2CCCCC2)cc1` (stereo unspecified) was inactive: 68%; that for `CCC(Oc1ccc(F)cc1)C(=O)Nc1cc(-c2ccc(C)cc2)no1` (stereo unspecified) was inactive: 54%.
The value for `COc1cccc(CNC(=O)Nc2cc(C(=O)NCc3cccc(F)c3)ccc2N2CCCC2)c1` was inactive: 68%; that for `COc1ccc(C(=O)NC2(C(F)(F)F)C(=O)NC(C)=C2C#N)cc1` (stereo unspecified) was inactive: 71%; that for `Cc1cc(C)n2nc(-c3ccccc3)cc2n1` was inactive: 97%.
As for `CCc1cccc(NC(=O)Cn2nc(CC)n3c(cc4cc(C)ccc43)c2=O)c1`, the survival was inactive: 56%.
The value for `O=c1oc2ccc3ccccc3c2cc1-c1nnc(Nc2ccccc2)s1` was inactive: 84%; that for `COc1ccc2c(C)c(CC(=O)NCCc3ccccc3)c(=O)oc2c1OC` was inactive: 60%.
